The list shows a part of the results.
tested on: PF3D7_0420300 AP2 domain 1 (GST-tagged); test: gcPBM binding intensity (ln(normalized median fluorescence intensity)); higher = stronger DNA binding
Outline: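 GST-fused DNA-binding domains of P. falciparum, expressed in E. coli, were applied at about 25 μg on average for 1 h to an Agilent 4 × 180k array of primer-extended double-stranded 36-bp intergenic genomic probes and negative controls. Binding intensity is the highest Masliner-normalised natural-log median intensity across replicate spots of either probe orientation, measured with Alexa488 anti-GST antibody and a 488 nm scan.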

| Sequence | gcPBM binding intensity (ln) |
| --- | --- |
| ATATATATATATATAATACACACTTATGAAATGTCT [CACACA_site1827] | 9.45 |
| TTACACATATTTTTAATTATTCTGAATTCAAAAAAA [CACACA_negctrl_site1706] | 8.84 |
| GTAATATTAAAATATACACACATAGAATATATATAT [CACACA_site4391] | 9.58 |
| ATAATCATAAAATAAACACACATATATAAATATATT [CACACA_site276] | 9.53 |
| TTTTTGTAAACCTACTTCATAATTATTTATATCTAT [XGTACX_negctrl_site599] | 9.33 |
| CTTTTGTATATTATATGTACACACAATAAGTTAATA [XGTACX_site1684] | 9.44 |
| ACATATATTTATATATGTACATATGATATATACATA [XGTACX_site6122] | 9.12 |
| AATTAACAAAAACACACACACACACCCACAAAAAAA [CACACA_site517] | 10.1 |
| TACATATAAACAATAACACACACCTAGGTACATGGA [CACACA_site8178] | 9.82 |
| AGGCTATAATACCATACACACATTTATAAAATAACA [CACACA_site6990] | 9.61 |
| TAAAAATTTGATCAAACACACGTTGCATAAATTATA [CACACA_site6040] | 9.29 |
| AAGAAAAAAAAAAAAACACACATATATTTATTTATA [CACACA_site7042] | 9.23 |
| TATACACATAGACACACACACAAAAAAAAAAAAAAA [CACACA_site6338] | 9.73 |
| GAAAGAAAAAATGATGAATAGAGATCAAATCTATAT [XGTACX_negctrl_site28] | 9.26 |
| TAATTGTACACATGCACACACAAATATTATAGATGT [CACACA_site6528] | 9.8 |
| TTGAGAAAAATTAATGGTACACATATTATAAGTATA [XGTACX_site6539] | 9.19 |
| TGTATAACATTTAGGTGTACAATTATATATAATATA [XGTACX_site8131] | 9.19 |
| TGACATATTATTAGGTGGTCACGTCTCCACGTCAAG [XGTACX_site7943] | 9.11 |
| ATTGTTAAATATAATACACACGTTTTTAAAAATATA [CACACA_site5239] | 9.19 |
| TAAAAATAAATAAATACATGCACCAAAAATAAATTT [TGCATGCA_site801] | 9.57 |
| AAAAAAAAAAAACATACACACACATATATATATATA [CACACA_site8452] | 9.9 |
| ATTGCCATTGTTAATGCATGTAACAATTCAGCTCAT [TGCATGCA_site56] | 9.1 |
| AAAATTATTTAGTAAGTGCAAAAAAAAAAAAAAAAA | 8.78 |
| AATTTGATTATAAATTGTACATATATATATTAAAAG [XGTACX_site5461] | 9.16 |
| TAAATAAAAAGACACACACACATATTTATATTTATA [CACACA_site7135] | 10 |

From the supplement of paper PMC11417369
